# Source: the RNAGym collection of RNA variant scans (doi:10.7554/elife.90254)
# The source gives no read counts; variants with many changes may rest on few reads.
# B1: LINE1-mini (parent)
# chain: GGCAGAGCUCAACACAGCGUGGCAAAGUGGCUGUGGCUAGACUGCC
# Variants of: B1
# Test: self-cleavage, relative activity (ratio to wild type); higher = more cleavage; in vitro, sequencing; the parent is a self-cleaving ribozyme
row,Variant,self-cleavage
1,GGCAGAGCUCAACACAGCGGGGCAAAGUGGCUGUGGCUGGUCUGCC,0.03
2,UGCAGAGCUCACCACAGCGUGGGAAAGUGGCUGUGGCUAGAUUGCC,0.01
3,GGCAGGGCUCAACACAGCGUUGCAAAGUGGAUGUGGCUAGACUGCC,0.01
4,GGCAGAGCUCAACACAGCGUGGCAAAGUGACUUUGGCUAGCCUGCC,0.03
5,GGCGGAGCUCAACACAGCUUGGCAAAGUGGUUGUGGCUAGAGUGCC,0.04
6,GGCAGAGCUCUACACAGCGUGGCAAAAUGGCUGUGGCCACACUACC,0.01
7,GGCAGAGCUCAAAACAGGGUGGCAAAGUGGCUGUGGCUCGACUGCC,0.02
8,GGAAGAGCUCAACACGGCGUGGCAAAGUGGCUGUAGCUAGACUGCC,0.21
9,GGCAGAGCUCAACACAACGUGGCAAAGUUGAUGUGGCUAGACUGCC,0.21
10,UGCACAGCUCAUCACCGCGUGGCAAAGUGGCUCUGGCUAGAGUGCU,0.03
11,GGCAGAGAUCAACACAGCGUGGCAAAGUGGCUGUUGCUAGACUCCC,0.17
12,UGCAGCGCUCAUCACAGCGAGGCAAAGUGGCUGUUGCUAGACUGCC,0.04
13,UGCAGAGCUCAACACAGGGUGGCAAAGUGGCUGUGGCUAGACUGGC,0.16
14,GUCAGAGCUCCACGCAACGUGGCAAAGUGGCUUUGGCUAGACUGCC,0
15,GGCAGAGCUCAACACAGGGUGGGAAAGUGUCUGUGGCUAGACUGUC,0.21
16,AUCAGAGCUCAACAAAGCGUGGCCAAGUUGCUGUGGCUAGACUGCC,0.09
17,GGCAGAGCUCAACACGGCGGGGCAAAGUGGCUAUGGCUAGACUGCC,0.08
18,GCCAGAGCUCAACACAGCGGUGCAAAGUGGCUGUGGCUAGAUUGCC,0.1
19,GGCAGGGCUCAACACAGCAUGGCAAAGUGGCUGUCGCUAGACUGCC,0.01

row,Variant,self-cleavage
1,GGCAGAGCUCAACACAUCGUCCCAACGUGGCGGUAGCUAGACUGCC,0.24
2,GUCAGAGUUCAACACAGCGCGGCAAAGUGGCUGUGGCUAUACUGCC,0.02
3,GGCAGAGCUCAACAAAGCGUGGCAAAGAGGCUGUGACUAGACUGCC,0.23
4,GGCAGAGCUCCACACAGCGUGGCAAAGUGGCUUUGGCUACACUGCC,0.02
5,GGCAGAGCUCAAUACAGAGUGGCAACGUGGCUGUGGCUAGCCUGCC,0.01
6,GUCAAAGCUCAACACAGUGUGGCAAAGUGGCUGUGGCCAGACUGCC,0.03
7,GGCAGAGCGCAACACAGCGUGGCAAAGUUACUGUGGCUAGACUGCC,0.11
8,CGCAGAGCUCAACACAGCGUGGCAAAGUGGCAGUGGCUAGACUUCC,0.02
9,GGCAUAGCUCAGCACAGCGUUGCAAAGUUGCUGUGGCGUCACUGCC,0
10,UGCAGAGCUCAACACAGCGUGGGAAAGUGGCUGUCGCUAGACUGCC,0.11
11,GGCACAGCUCAACACAGCGUGGCAAGGUGGCUGUGGCUAGACUACC,0.03
12,GGCAGAACUCAGGAUAGCGUGGCAAAGUGGCUGUGGUUAGACUGCC,0.07
13,GGCAGAGCUCAACCCAGAGUUGCAAAGUGGCGGUGGCUAGACUCCC,0.03
14,GGUAGAGCUCAACACAGCGUGGAAAAGUGGCUGUGGCUACACUGCC,0.05
15,GGCAGAGAUCAAUACAGCGUGGCAAAGUGGCUGUGGCUAGAGUGCC,0.3
16,GGCAGAGCUCAAGACAGCGUGGCAAAGUGGCUGUGGCUAGACUUCU,0.06
17,GGCAGAGCUAAAAACAGCGUGGCAAAGUGGCUGUGCCUAGACUGCC,0.02
18,GGCAGCGGUCAACACGGCGUGGCAAAGUGGCUGUCGCUAGACUGCC,0
19,GGCAGAGCUGAACACAACGUGGCAAAGUCGCUGUGGCUAGACUGCC,0.08

row,Variant,self-cleavage
1,GGCAAAGCUCAGCUCAGCGUGGCAAAGUGGCUGUUGCGAGACUGCC,0.01
2,GGCAGAGCUCACGACAGCGUGGCAAAGUGGCUGUGGGUAGACUGCC,0.01
3,GGCAGAACUCCACACAGCGUGGCACAGUGGCUCUGGCUUGACUGCC,0.01
4,GGCAGAGCUCAACACAGCGUGGCAUAGUGGCUGUGGCUAAACUGGC,0.02
5,GGCAGAGCUCAACACAACGUGGCAAAGUGGCUCUGGCUAGACUUCC,0.03
6,GGCAGAGCUCAACACAGCGUGGCAAAGUGGCUGUGGCUAGAAUUCU,0.04
7,GGCAGAGCUCAACACAGCGGGGCAACGUGGCUCUGGCUAGACUGCC,0.07
8,GGCAGAGCUCGACACAGCGUGGCAAAGUGGGUGUGGCUAGACUCCC,0
9,GGCAGAGCUCAAUCCAGCGUGGCAAAGUGGCGGGGGCUAGACUGCC,0.01
10,AGCAGAGCUCAAUACAGCGUGGCAAAGAGGCUGUGGCUAGACUGCC,0.12
11,GGCAGAGCUCAACACAGCGUGGCAAAGUGGCUGCGGCGAGAAUGCC,0.04
12,GGGAGAGCUCAACACAGCGUGACAAAGUGGCUGUGGCUAGACUGCU,0.25
13,GGCAGAGCUCAACACAGCAUGGCAAAGUGACUGUGGUUAGACUGCC,0.03
14,GGCGGAACUCAACACAGCGUGGGAAAGUGGGUGUGGCUAGACUCCC,0.02
15,GGCAGAGCACGACACAGCGUGGCAAAGUGGCUUUGGCUAGACUGAC,0.02
16,GGUAGACCGAAACACAGCGUGGCAAAGUGGCUGUGGCUAACCUGCC,0.02
17,GGCAGAGCUCAACACCGCGUGGCAAAGUGGCUAUGGCAAGACUGCC,0.07
18,CGCGGAGAUCAAGACAGCGUGGCAAAGUGGCUGUGGGUAAACUGCC,0.09
